A compilation of properties of binary mixtures (doi:10.1021/je060126x)
The densities may have been worked out from excess volumes.

Assay: xn = mol fraction of the nth substance listed
Conditions: 298.15 K, 101 kPa

CCOS(=O)(=O)[O-].CC[n+]1ccn(C)c1 + CCO
Conditions | mass density [kg/m3]
x2 = 0.1271 | 1220.7
x2 = 0.1281 | 1220.6
x2 = 0.3598 | 1176.3
x2 = 0.4604 | 1150.1
x2 = 0.5103 | 1134.8
x2 = 0.5223 | 1131
x2 = 0.5724 | 1113.2
x2 = 0.5951 | 1104.5
x2 = 0.712 | 1050.5
x2 = 0.7174 | 1047.7
x2 = 0.806 | 992
x2 = 0.8666 | 943.3
x2 = 0.9026 | 908.9
x2 = 0.9062 | 905
x2 = 0.9504 | 854.7
x2 = 0.9522 | 852.3
